The results in this text go back to patent publication US20260176310A1 (NAVIGO PROTEINS, published 2026).

Positions count from the first letter of the chain named.

To fix the notation:
T1: hFAP-Fc (human, UniProt Q12884 26-760)
T1 construct: extracellular domain; Made in house in Expi293-F cells; also called hFAP-Fc-His; human FAP; not shown: IgG1-Fc
T1 sequence (looked up): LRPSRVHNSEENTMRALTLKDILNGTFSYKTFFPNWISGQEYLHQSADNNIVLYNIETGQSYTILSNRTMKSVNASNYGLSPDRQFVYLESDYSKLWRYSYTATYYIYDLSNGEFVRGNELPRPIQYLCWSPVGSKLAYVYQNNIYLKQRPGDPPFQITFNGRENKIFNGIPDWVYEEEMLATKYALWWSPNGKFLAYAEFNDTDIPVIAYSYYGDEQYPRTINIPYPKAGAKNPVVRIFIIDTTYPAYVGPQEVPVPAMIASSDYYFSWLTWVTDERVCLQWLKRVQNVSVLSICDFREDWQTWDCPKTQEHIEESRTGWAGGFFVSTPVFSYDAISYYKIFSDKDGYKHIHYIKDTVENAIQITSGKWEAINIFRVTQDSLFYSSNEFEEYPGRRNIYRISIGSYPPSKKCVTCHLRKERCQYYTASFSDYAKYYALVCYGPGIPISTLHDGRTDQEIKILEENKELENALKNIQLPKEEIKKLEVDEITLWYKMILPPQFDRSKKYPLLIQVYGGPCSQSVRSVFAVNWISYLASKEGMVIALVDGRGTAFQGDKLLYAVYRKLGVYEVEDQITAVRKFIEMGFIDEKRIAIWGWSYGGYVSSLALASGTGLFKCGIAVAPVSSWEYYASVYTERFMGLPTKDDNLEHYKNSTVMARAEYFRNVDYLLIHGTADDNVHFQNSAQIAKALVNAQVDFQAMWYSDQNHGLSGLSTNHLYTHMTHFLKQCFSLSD

T2: mFAP-Fc (mouse, UniProt P97321 26-761)
T2 construct: extracellular domain; Made in house in ExpiCHO cells; also called mFAP-Fc-His; mouse FAP; not shown: IgG1-Fc
T2 sequence (looked up): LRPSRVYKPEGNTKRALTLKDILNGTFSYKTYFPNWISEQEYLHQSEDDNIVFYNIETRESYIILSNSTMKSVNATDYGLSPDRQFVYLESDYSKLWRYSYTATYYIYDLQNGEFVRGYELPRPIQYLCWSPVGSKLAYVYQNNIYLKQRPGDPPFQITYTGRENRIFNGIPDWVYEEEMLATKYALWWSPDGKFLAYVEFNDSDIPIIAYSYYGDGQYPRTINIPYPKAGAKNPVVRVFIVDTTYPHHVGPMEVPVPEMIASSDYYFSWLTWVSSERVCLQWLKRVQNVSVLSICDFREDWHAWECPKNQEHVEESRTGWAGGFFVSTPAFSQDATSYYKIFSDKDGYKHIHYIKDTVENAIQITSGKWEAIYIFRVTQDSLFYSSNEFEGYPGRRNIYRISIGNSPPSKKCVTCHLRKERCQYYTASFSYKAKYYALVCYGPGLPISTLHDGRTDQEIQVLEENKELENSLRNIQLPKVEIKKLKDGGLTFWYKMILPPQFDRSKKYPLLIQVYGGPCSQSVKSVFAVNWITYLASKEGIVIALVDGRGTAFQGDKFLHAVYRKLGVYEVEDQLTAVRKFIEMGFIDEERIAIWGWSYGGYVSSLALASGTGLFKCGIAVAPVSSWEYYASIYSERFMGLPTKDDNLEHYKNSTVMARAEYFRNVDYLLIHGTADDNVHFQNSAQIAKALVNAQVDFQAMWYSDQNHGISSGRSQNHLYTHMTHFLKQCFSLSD

B1: Affilin®-219750 (designed binder)
chain: MQIFVKTLTRDYHRFGKTITLEVEPSDTIENVKAKIQDKEGIPPDQQRLAWAGKQLEDGRTLSDYNIHDGHTLKLKLLLRAA
notes: Ubiquitin mutein
B2: Affilin®-220134 (designed binder)
chain: MQIFVWTRRNKRITLEVEPSDTIENVKAKIQDKEGIPPDQQHLTWKGKQLEDGRTLSDYNISEWPNLFLRLNLRAA
notes: Ubiquitin mutein
B3: Affilin®-220198 (designed binder)
chain: MQIFVKTLTEDWFVYGKTITLEVEPSDTIENVKAKIQDKEGIPPDQQRLAWAGKQLEDGRTLSDYNIQGGSMLMLKLHLRAA
notes: Ubiquitin mutein
B4: Affilin®-219235 (designed binder)
chain: MQIFVYTMREKQITLEVEPSDTIENVKAKIQDKEGIPPDQQDLKWKGKQLEDGRTLSDYNIFWFPHLTLGLSLRAA
notes: Ubiquitin mutein
B5: Affilin®-223077 (designed binder)
chain: MQIFVWTDDWKRITLEVEPSDTIENVKAKIQDKEGIPPDQQVLAWRGKQLEDDRTLSDYNIMVWPNLWLRLRAA
notes: Ubiquitin mutein
B6: Affilin®-223078 (designed binder)
chain: B5 chain with T14I, D53S
notes: Ubiquitin mutein

One assay deals with T1, hFAP-Fc. Description: ELISA on coated hFAP-Fc; Affilin in mouse serum, 0 h. The method, then: (§1) High binding plates (Greiner, 781061) were immobilized with 2.5 μg/ml hFAP-Fc over night at 4° C. Dilution series of 3 µM to 0.07 PM of Affilin® proteins were incubated in 100% human serum or 100% mouse serum for 24 h at 37° C.
(§2) ELISA-plates were washed three times with PBST (PBS+ 0.1% Tween) and blocked with 3% BSA/0.5% Tween/PBS 1 h at rt. After preincubation for 0 h or 24 h in the presence of serum the dilution series were incubated on ELISA-plates for 30 min at room temperature (rt). Wells were washed with PBST and incubated with biotinylated anti-ubiquitin-antibody (1:300) for 30 min at rt. The binding was visualized with Streptavidin-HRP (1:5.000). […] ELISA analysis confirmed the high stability of FAP binding proteins in serum.
In the case of B1, the Kd (usually a measure of binding affinity in units of concentration) was determined as 0.4 nM.

Regarding B2, the Kd was found to be 0.6 nM.

Regarding B3, binding was characterised by a dissociation constant (Kd) of 1.5 nM.

The target of a further assay is T1, hFAP-Fc. Put plainly: ELISA on coated hFAP-Fc; Affilin in human serum, 0 h. As to the method: as §1, §2
On the technique in general: An ELISA detects its analyte on a solid surface through an enzyme-linked reagent.
In turn, B1 showed a Kd of 0.3 nM.

In turn, B2 gave a Kd of 0.6 nM.

Consider B3, for which the Kd is 0.5 nM.

In the next assay the target is T3, hCD26 expressed on HEK293-hCD26 cells (human, UniProt P27487 1-766).
T3 construct: whole, on cells
Put plainly: flow cytometry on HEK293-hCD26 cells. As to the method:
(§3) Flow cytometry was used to analyze the interaction of FAP binding proteins with cell surface-exposed hFAP and mFAP. FAP overexpressing human embryonic kidney cell line HEK293, CD26-overexpressing HEK293-cells, native FAP expressing cell line Wi38 and empty vector control HEK293-pEntry cells were used. The anti-hFAP antibody (R&D Systems, MAB3715-100) with a concentration of 1 μg/ml in combination with anti-mouse-IgG-Alexa488 (Invitrogen, A10680) with a 1:1000 dilution was used as positive control for hFAP-expressing cells. Anti-mFAP antibody (R&D Systems, MAB9727) with a concentration of 1 μg/ml in combination with anti-rat-IgG-Alexa488 (Invitrogen, A11006) with a dilution of 1:1000 was used as positive control for mFAP-expressing cells.
(§4) Cells were trypsinized and resupended in medium containing FCS, washed and stained in pre-cooled FACS blocking buffer (3% FCS/PBS). A suspension with a cell concentration of 1×10⁶ cells/ml was prepared for cell staining and filled with 100 μl/well into a 96 well plate (Greiner) in triplicate for each cell line.
(§5) Affilin® proteins were tested with a concentration of 1 μM, 100 nM, 10 nM, or 1 nM on FAP expressing cells HEK293-hFAP, HEK293-mFAP and Wi38-cells. To exclude an unspecific binding, Affilin® proteins were also incubated on CD26 expressing cells HEK293-hCD26 and HEK293-mCD26 and control cells HEK293-pEntry with the same concentrations. […] Supernatants were removed after 45 min, cells were washed in blocking buffer and 100 μl/well rabbit anti-StrepTag antibody (GenScript; A00626), 1:300 diluted in FACS blocking buffer were added. After removal of the primary antibody, goat anti-rabbit-IgG-Alexa Fluor 488 antibody (Invitrogen; A11008) was applied in a 1:1000 dilution. Flow cytometry measurement was conducted on the Guava easyCyte 5HT device from Merck-Millipore at excitation wavelength 488 nm and emission wavelength 525/30 nm.
On the technique in general: A flow cytometer gives signals particle by particle.
For B1, the binding result is “no binding (tested: 1 µM, 100 nM, 10 nM, or 1 nM)”.

Turning to B2, the binding result is “no binding (tested: 1 µM, 100 nM, 10 nM, or 1 nM)”.

For the molecule B4, the binding result is reported as “no binding (tested: 1 µM, 100 nM, 10 nM, or 1 nM)”.

Regarding B3, the binding result was “no binding (tested: 1 µM, 100 nM, 10 nM, or 1 nM)”.

Consider B5, for which the binding result is “no binding (tested: 1 µM, 100 nM, 10 nM, or 1 nM)”.

In the case of B6, the binding result was “no binding (tested: 1 µM, 100 nM, 10 nM, or 1 nM)”.

A further assay deals with T4, mCD26 expressed on HEK293-mCD26 cells (mouse, UniProt P28843 1-760).
T4 construct: whole, on cells
Description: flow cytometry on HEK293-mCD26 cells. The method, then:
as §3, §4, §5
In the case of B1, the binding result was “no binding (tested: 1 µM, 100 nM, 10 nM, or 1 nM)”.

As to B2, the binding result is listed as “no binding (tested: 1 µM, 100 nM, 10 nM, or 1 nM)”.

On to B4, for which the binding result is on record as “no binding (tested: 1 µM, 100 nM, 10 nM, or 1 nM)”.

In the case of B3, the binding result was “no binding (tested: 1 µM, 100 nM, 10 nM, or 1 nM)”.

For the molecule B5, the binding result is “no binding (tested: 1 µM, 100 nM, 10 nM, or 1 nM)”.

Turning to B6, the binding result is “no binding (tested: 1 µM, 100 nM, 10 nM, or 1 nM)”.

Another assay addresses T5, mCD26-Fc (mouse, UniProt P28843 29-760, limits assumed).
T5 construct: Off-target in SPR; construct not described further; also called mCD26-Fc-His; not shown: Fc
Description: SPR, Fc-tagged CD26 captured on protein A. The method, then: (§6) Recombinant protein A was immobilized on a High Capacity Amine sensor chip (Bruker) after NHS/EDC activation resulting in approx. 2000 RU with a Sierra SPR-32 system (Bruker). The chip was equilibrated with SPR running buffer (PBS 0.05%, Tween pH 7.3). Injection of ethanolamine after ligand immobilization was used to block unreacted NHS groups. The Fc-tagged FAP and CD26 target molecules were injected with 60 nM followed by the injection of FAP binding proteins. Upon binding, target analyte was accumulated on the surface increasing the refractive index. This change in the refractive index was measured in real time and plotted as response or resonance units versus time. The FAP binding proteins were applied to the chip in serial dilutions with a flow rate of 30 μl/min. The association was performed for 120 seconds and the dissociation for 180 seconds. After each run, the chip surface was regenerated with 30 μl regeneration buffer (10 mM glycine pH 2.0) and equilibrated with running buffer. Binding studies were carried out by the use of the Sierra SPR-32 system (Bruker); data evaluation was operated via the Sierra Analyser software, provided by the manufacturer, by the use of the Langmuir 1:1 model (RI=0). Evaluated dissociation constants (KD) were standardized against the immobilized protein and indicated.
With B1, the binding result is “no binding”.

On to B2, for which the binding result is on record as “no binding”.

As to B4, the binding result is given as “no binding”.

As to B3, the binding result is listed as “no binding”.

For B5, the binding result is given as “no binding”.

As for B6, the binding result was “no binding”.

The target in the next assay is T6, hCD26-Fc (human, UniProt P27487 29-766, limits assumed).
T6 construct: Off-target in SPR; the in-house construct is not described further; also called hCD26-Fc-His; not shown: Fc
Put plainly: SPR, Fc-tagged CD26 captured on protein A. The method, then: as §6
Background: Surface plasmon resonance follows binding to a sensor surface in real time, without labels.
On to B1, for which the binding result was “no binding”.

Regarding B2, the binding result is given as “no binding”.

Take B4: the binding result is on record as “no binding”.

On to B3, for which the binding result is “no binding”.

Consider B5, for which the binding result is reported as “no binding”.

As to B6, the binding result is reported as “no binding”.

In another assay the target is T1, hFAP-Fc. Description: SPR (Sierra SPR-32), hFAP-Fc captured on protein A, 1:1 Langmuir. As to the method: as §6
B1 returned a Kd of 6 nM. This lies in the single-digit nanomolar range.

Consider B2, for which the Kd worked out at 1.7 nM.

Consider B4, for which the Kd was 5.1 nM.

B3 gave a Kd of 3.3 nM.

In the case of B5, the equilibrium dissociation constant (Kd) came out at 3 nM.

The molecule B6 displayed a Kd of 2 nM.

A further assay has as its target T1, hFAP-Fc. Put plainly: ELISA on coated hFAP-Fc; Affilin in human serum, 24 h at 37° C. The method, then: as §1, §2
Regarding B1, the Kd is 0.4 nM.

The molecule B2 gave a dissociation constant Kd of 0.6 nM.

B3 showed a Kd of 0.4 nM.

The next assay concerns the target T1, hFAP-Fc. Put plainly: ELISA on coated hFAP-Fc; Affilin in mouse serum, 24 h at 37° C. As to the method:
as §1, §2
Molecule B1 registered a Kd of 0.5 nM. That is a sub-nanomolar value.

Turning to B2, the affinity, expressed as Kd, was 0.7 nM.

B3 registered a dissociation constant (Kd) of 1.9 nM. Against the preceding molecule, the Kd is about 2.7-fold higher.

Another assay concerns the target T2, mFAP-Fc. Put plainly: SPR, Fc-tagged target captured on protein A. As to the method: as §6
Consider B4, for which the affinity, expressed as Kd, was 21.6 nM.

In the case of B5, the Kd was 5 nM.

In turn, B6 displayed a Kd of 3 nM.
